Source: PubChem BioAssay AID1476 (National Center for Advancing Translational Sciences (NCATS), 2009)
Among all 200,000 compounds or so, about 4,500 (2.2%) were called active. The inconclusive results got no clear call from the source; some entries with a clear call stand among them for comparison. Calls come from the whole dose curve; as a rule, active = well fitted inhibition curve with a large enough effect; inconclusive = small, poorly fitted or top-dose-only effect, or effect the other way; inactive = flat fitted curve, though single readings scatter. Potencies of inconclusive entries are doubtful fits and often do not repeat.

Target: Cruzipain (Trypanosoma cruzi) (UniProt P25779)
Assay: qHTS Assay for Promiscuous and Specific Inhibitors of Cruzain (without detergent); note: nearly all actives have a fitted effect of over 40% in size;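 for max response, negative = inhibition: plate controls were enzyme without inhibitor for no effect and buffer without enzyme for full effect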
Details: purified cruzain, Z-FR-AMC fluorescence, no detergent
Procedure, shortened: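 Purified cruzain at 1.5 nM, pre-incubated 15 min with compound at room temperature in 100 mM sodium acetate pH 5.5, 5 mM DTT, 0.00005% Triton X-100. Reaction started with 2 uM Z-FR-AMC; AMC fluorescence increase over 60 s gives rate.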
Potency is the fitted concentration of half-maximal effect; tags give direction and shape of the fitted curve.

UniProt P25779, sequence (P25779 whole entry, looked up): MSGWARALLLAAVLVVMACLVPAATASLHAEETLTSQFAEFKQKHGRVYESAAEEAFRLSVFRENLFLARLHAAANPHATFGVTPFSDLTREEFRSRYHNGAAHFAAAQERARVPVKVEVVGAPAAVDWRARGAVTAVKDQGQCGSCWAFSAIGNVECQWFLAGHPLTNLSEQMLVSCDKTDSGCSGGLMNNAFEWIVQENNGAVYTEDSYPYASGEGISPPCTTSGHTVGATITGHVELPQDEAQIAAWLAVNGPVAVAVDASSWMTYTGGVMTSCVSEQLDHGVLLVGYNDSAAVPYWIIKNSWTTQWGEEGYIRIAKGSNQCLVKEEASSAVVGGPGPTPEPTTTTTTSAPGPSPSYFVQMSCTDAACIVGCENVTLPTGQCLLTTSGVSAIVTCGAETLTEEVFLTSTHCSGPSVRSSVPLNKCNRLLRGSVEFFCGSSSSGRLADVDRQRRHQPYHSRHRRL

SMILES | Potency | max response, negative = inhibition
O=C(O)c1ccc(-c2nc(-c3ccccc3)c(-c3ccccc3)[nH]2)cc1 | inconclusive: 31.6 µM [activator, single point] | –
Cc1cc(C)cc(NC(=O)C(OC(=O)c2ccc([N+](=O)[O-])o2)c2ccccc2)c1 (configuration not stated) | inconclusive: 31.6 µM [inhibitor, single point] | –
COc1cc([N+](=O)[O-])ccc1NC(=O)CSc1nc2ccccc2n1-c1ccccc1 | active: 12.6 µM | –
CC(C)(C)c1ccc(C(=O)Nc2onc3c2CCCC3)cc1 | – | inactive: -1.09%
O=C(NCc1cccc(F)c1)c1ccc(NC(=O)c2nsc3ccccc23)cc1 | – | inactive: -23%
Cc1ccc(CCNC(=O)c2c(C)oc3ncn(CC(C)C)c(=O)c23)cc1 | – | inactive: -12.5%
Cn1c(=O)oc2cc(S(=O)(=O)N3CCC(C(=O)N4CCN(c5ccccc5F)CC4)CC3)ccc21 | inconclusive: 31.6 µM [activator, single point] | –
COc1cc(Cl)c(C)cc1NC(=O)CC(c1ccc(F)cc1)N1Cc2ccccc2C1=O (configuration not stated) | – | inactive: 2.82%
Cc1cc(C)c2c(N)c3ccccc3nc2n1 | inconclusive: 10 µM [inhibitor, single point] | –
CC(C)CCNC(=O)C(c1ccco1)N(CC1CCCO1)C(=O)Cn1nnc2ccccc21 (configuration not stated) | inconclusive: 39.8 µM [activator, single point] | –
CN(C)c1ncc2nc(-c3cc(F)cc(F)c3)c(=O)n(C)c2n1 | active: 20 µM | –
Cc1ccc2nc3c(cc(C(=O)NCC4CCCO4)c(=N)n3CCCOC(C)C)c(=O)n2c1 (configuration not stated) | – | inconclusive: -76.8% [inhibitor]
N[C@@H](Cc1cccc([N+](=O)[O-])c1)C(=O)O | – | inactive: 9.2%
Cc1sc(-c2cc3c([nH]c2=O)CC(c2ccccc2)CC3=O)nc1-c1ccc(Cl)cc1 (configuration not stated) | inconclusive: 25.1 µM [inhibitor, single point] | –
Cc1n[nH]c(C)c1S(=O)(=O)N1CCCC(C(=O)Nc2ccc3c(c2)OCCO3)C1 (configuration not stated) | – | inactive: -12.5%
c1cc(NC2CC2)nc(-c2ccoc2)n1 | – | inactive: 1.46%
Cc1cc(C)cc(-n2nnnc2SCC(=O)Nc2nc(-c3ccc(Cl)cc3)cs2)c1 | active: 6.31 µM | –
C/C(=N\NC(=O)c1nc(C)cc(C)n1)c1ccccc1 | – | inactive: 4.34%
Oc1c(Cl)cc(Cl)cc1C(C#Cc1ccccc1)N1CCOCC1 (configuration not stated) | inconclusive: 39.8 µM [inhibitor, single point] | –
CC(=O)SC(C[N+](=O)[O-])c1cn(C(C)=O)c2ccccc12 (configuration not stated) | inconclusive: 10 µM [inhibitor, partial curve] | –
O=C(Nc1nc2ccc(SC(F)F)cc2s1)c1ccc(NS(=O)(=O)c2ccc(F)c(F)c2)cc1 | active: 31.6 µM | –
COc1ccc(N(CC(=O)N2CCN(c3ccc(F)cc3)CC2)S(=O)(=O)c2c(C)noc2C)cc1 | inconclusive: 20 µM [activator, partial curve] | –
Cc1ccc(-n2cc(-c3ccc([N+](=O)[O-])cc3)[nH]c2=S)c(C)c1 | inconclusive: 39.8 µM [inhibitor, single point] | –

SMILES | Potency | max response, negative = inhibition
CNC(=O)c1ccccc1NC(=O)c1c(O)c2c([nH]c1=O)CCCC2 | inconclusive: 25.1 µM [activator, single point] | –
CSc1cc(-c2ccc(Cl)cc2)n(Cc2ccccc2)c(=O)c1C#N | active: 25.1 µM | –
NC(=O)[C@H](Cc1cc2ccccc2s1)NC(=O)[C@@H]1CC2(CC(c3cccc(NC(=O)[C@@H]4CCC(=O)N4)c3)=NO2)CN1C(=O)/C=C/Sc1ccccc1 (some centres not stated) | inconclusive: 5.01 µM [activator, single point] | –
O=c1c(CCc2ccccc2)nc2cncnc2n1-c1ccccc1 | – | inactive: -1.77%
O=C(CSc1ccc(C(F)(F)F)cc1[N+](=O)[O-])Nc1ccc2ccccc2c1 | active: 12.6 µM | –
O=C(/C=C/c1ccc(Cl)cc1Cl)c1cccnc1 | inconclusive: 39.8 µM [activator, single point] | –
CCc1ccccc1N1CSC2=C(C#N)C(c3cc(OC)c(OC)cc3OC)CC(=O)N2C1 (configuration not stated) | – | inactive: 17.8%
CCN(C(=O)CSc1nc2ccccc2n1Cc1ccc(F)cc1Cl)c1ccccc1 | – | inactive: -0.213%
COc1ccc2cc(/C=N/NC(=O)c3ccc(CN(c4cccc(Cl)c4Cl)S(C)(=O)=O)cc3)c(Cl)nc2c1 | active: 25.1 µM | –
COc1cc(/C=N/NC(=O)C(=O)/C=C2\NC3(CCCC3)Cc3ccccc32)ccc1O | – | inactive: -1.88%
COc1ccc(/C=N/N(C(C)=O)c2nc(-c3ccc(C)cc3)cs2)cc1 | – | inactive: -2.64%
O=C(Nc1ccc(N2CCCC2)cc1)C(Cl)c1ccccc1 (configuration not stated) | inconclusive: 31.6 µM [inhibitor, single point] | –
CS(=O)(=O)N(CC(=O)N1CCN(C(c2ccccc2)c2ccccc2)CC1)C1CCCCC1 | inconclusive: 39.8 µM [activator, single point] | –
CC(=O)Nc1ccc(N(C(=O)Cn2nnc3ccccc32)C(C(=O)NCc2ccccc2)c2ccc(C)cc2)cc1 (configuration not stated) | inconclusive: 39.8 µM [activator, single point] | –
CCC(=O)N1CCc2cc(S(=O)(=O)NC(C(=O)NCc3ccc(C)cc3)C(C)C)ccc21 (configuration not stated) | inconclusive: 39.8 µM [inhibitor, single point] | –
COCC(C)n1c(C)cc(C(=O)CN2C(=O)NC(Cc3c[nH]c4ccccc34)C2=O)c1C (configuration not stated) | inconclusive: 39.8 µM [activator, single point] | –
N[C@@H](CSC1c2ccccc2-c2ccccc21)C(=O)O | – | inactive: -9.95%
Cc1ccc(C)c(N2CCN(C(=O)CCCOc3cc(=O)n(C)c4ccccc34)CC2)c1 | inconclusive: 31.6 µM [activator, single point] | –
Cc1ccc(-c2cc(-c3ccccc3)c(C#N)c(SCC(O)CS(=O)(=O)Cc3ccccc3)n2)cc1 (configuration not stated) | active: 10 µM | –
COc1ccc(F)cc1S(=O)(=O)Nc1cccc(-c2ccc(N3CCC(C)CC3)nn2)c1 | – | inactive: -6.68%
O=C(CSc1nc2nc3c(cc2c(=O)n1-c1ccccc1)CCCC3)Nc1cccc2ccccc12 | inconclusive: 39.8 µM [inhibitor, single point] | –
COc1ccc(C(=O)Nc2nc(-c3nnn(-c4ccc(C(C)C)cc4)c3C)ns2)cc1 | inconclusive: 39.8 µM [inhibitor, single point] | –
COc1ccc(/C=N/OCC(=O)N=Nc2c(O)[nH]c3ccc(Br)cc23)cc1OC | inconclusive: 20 µM [activator, partial curve] | –

SMILES | Potency | max response, negative = inhibition
COC(=O)c1c(-n2c(C)cc(C=O)c2C)sc2c1CCCC2 | active: 7.94 µM | –
CCc1ccc(NC(=O)Cn2c(=O)n(CCC(=O)NCCc3ccc(Cl)cc3)c(=O)c3ccccc32)cc1 | – | inactive: 6.83%
Nc1nc(SCc2ccc([N+](=O)[O-])cc2)c2ncn([C@@H]3O[C@H](CO)[C@H](O)[C@H]3O)c2n1 | – | inactive: 3.85%
COc1ccc(C(=O)C(OC(=O)CNC(=O)c2ccco2)c2ccccc2)cc1 (configuration not stated) | active: 3.16 µM | –
O=C(COC(=O)c1cn(-c2ccccc2)nc1-c1ccc(F)cc1)Nc1ncc(Cl)cc1Cl | inconclusive: 39.8 µM [inhibitor, single point] | –
CCc1ccc(CNC(=O)c2cnc3c(C)cccn3c2=O)cc1 | inconclusive: 25.1 µM [activator, single point] | –
COc1ccc(-n2c(Cc3cccn3C)nnc2SCC(=O)Nc2ccc(C(C)=O)cc2)cc1 | inconclusive: 20 µM [activator, single point] | –
Cc1c(Cl)cccc1NC(=O)Cn1c(=O)n(Cc2nc(-c3ccccc3)no2)c(=O)c2cc3c(cc21)OCO3 | inconclusive: 31.6 µM [inhibitor, single point] | –
C=CCSc1nccc(-c2nn(-c3ccc(C)cc3)ccc2=O)n1 | inconclusive: 25.1 µM [activator, single point] | –
Cc1ccc(Cn2c(=O)c3cccnc3n(CC(=O)Nc3cc(Cl)ccc3C)c2=O)cc1 | – | inactive: -6.54%
CCC1=C2CC[C@H]3C(=O)N(c4ccccc4)C(=O)[C@H]3[C@H]2[C@@]2(C)C(=O)N(CC(=O)OC)C(=O)N2C1=O | – | inactive: 0.198%
Cc1ccc(C(=O)C2Oc3ccccc3C3CC(c4ccc(C)cc4)=NN23)cc1 (configuration not stated) | inconclusive: 39.8 µM [inhibitor, single point] | –
CCNC(=S)N/N=C1\C(=O)c2cccc3cccc1c23 | inconclusive: 31.6 µM [inhibitor, single point] | –
CCCC(C)NC(=S)NC(=O)c1cc(S(=O)(=O)N2CCOCC2)ccc1C (configuration not stated) | – | inactive: 3.93%
CCOC(=O)C1=C(CN2CCc3ccccc32)NC(=O)NC1c1ccc(Cl)cc1 (configuration not stated) | inconclusive: 39.8 µM [inhibitor, single point] | –
CC(C)CNC(=O)c1cc(-c2ccc(Cl)c(Cl)c2)on1 | active: 12.6 µM | –
COc1cc(/C=C(\C#N)c2nc3ccccc3[nH]2)cc(Br)c1OCc1ccccc1 | inconclusive: 39.8 µM [inhibitor, single point] | –
Cc1sc2nc(CSc3cccc(C(F)(F)F)c3)[nH]c(=O)c2c1C | active: 25.1 µM | –
COc1ccc(-c2oc3ncn4nc(Cc5ccccc5)nc4c3c2-c2ccc(OC)cc2)cc1 | active: 10 µM | –
CCCCN(C)S(=O)(=O)c1ccc(C(=O)Nc2ccc(-c3nc4ccc(C)cc4s3)cc2)cc1 | – | inactive: 6%
CC(=O)N1CCc2c(sc3c2c(=O)n(-c2ccc(C)cc2)c(=O)n3Cc2ccccc2C)C1 | inconclusive: 39.8 µM [activator, single point] | –
